Results reported in PubChem BioAssay AID1645887 (National Center for Advancing Translational Sciences (NCATS), 2021).
Several values for one entry are separate records, joined by “and”; a condition that tells them apart may be missing. Identical values can stand only once. Among all 16,000 compounds or so, about 40 (0.2%) were called active. Roughly 1% stayed inconclusive and do not appear here. Calls come from the whole dose curve; as a rule, active = well fitted activation curve with a large enough effect; inconclusive = small, poorly fitted or top-dose-only effect, or another doubt; inactive = no such curve, though single readings can be large or run the other way. This is one part of the list.

Each molecule was assayed against Rap guanine nucleotide exchange factor 4 (Homo sapiens) (UniProt Q8WZA2) (assay: Validation qHTS for agonist of cAMP-regulated guanine nucleotide exchange factor 4 (EPAC2)). Details: EPAC2 Rap1B BODIPY-GDP exchange, fluorescence; activation: stronger effect = higher value.
Summary of the method: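 Signal normalized against 6.5 mM cAMP as agonist control. Mix of EPAC2 (100 nM), RAP1B-BODIPY-GDP (250 nM) and GDP (50 uM) was read kinetically at 480/540 nm, every 5 min over 30 min, after 5 min room-temperature incubation with compound.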
% is set by controls: 0 for no effect and ±100 for the full control effect.
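Note: exchange makes BODIPY-GDP fluorescence drop when released from Rap1B; series mostly up to about 150 µM.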

Chain of UniProt Q8WZA2 (Q8WZA2 whole entry, looked up): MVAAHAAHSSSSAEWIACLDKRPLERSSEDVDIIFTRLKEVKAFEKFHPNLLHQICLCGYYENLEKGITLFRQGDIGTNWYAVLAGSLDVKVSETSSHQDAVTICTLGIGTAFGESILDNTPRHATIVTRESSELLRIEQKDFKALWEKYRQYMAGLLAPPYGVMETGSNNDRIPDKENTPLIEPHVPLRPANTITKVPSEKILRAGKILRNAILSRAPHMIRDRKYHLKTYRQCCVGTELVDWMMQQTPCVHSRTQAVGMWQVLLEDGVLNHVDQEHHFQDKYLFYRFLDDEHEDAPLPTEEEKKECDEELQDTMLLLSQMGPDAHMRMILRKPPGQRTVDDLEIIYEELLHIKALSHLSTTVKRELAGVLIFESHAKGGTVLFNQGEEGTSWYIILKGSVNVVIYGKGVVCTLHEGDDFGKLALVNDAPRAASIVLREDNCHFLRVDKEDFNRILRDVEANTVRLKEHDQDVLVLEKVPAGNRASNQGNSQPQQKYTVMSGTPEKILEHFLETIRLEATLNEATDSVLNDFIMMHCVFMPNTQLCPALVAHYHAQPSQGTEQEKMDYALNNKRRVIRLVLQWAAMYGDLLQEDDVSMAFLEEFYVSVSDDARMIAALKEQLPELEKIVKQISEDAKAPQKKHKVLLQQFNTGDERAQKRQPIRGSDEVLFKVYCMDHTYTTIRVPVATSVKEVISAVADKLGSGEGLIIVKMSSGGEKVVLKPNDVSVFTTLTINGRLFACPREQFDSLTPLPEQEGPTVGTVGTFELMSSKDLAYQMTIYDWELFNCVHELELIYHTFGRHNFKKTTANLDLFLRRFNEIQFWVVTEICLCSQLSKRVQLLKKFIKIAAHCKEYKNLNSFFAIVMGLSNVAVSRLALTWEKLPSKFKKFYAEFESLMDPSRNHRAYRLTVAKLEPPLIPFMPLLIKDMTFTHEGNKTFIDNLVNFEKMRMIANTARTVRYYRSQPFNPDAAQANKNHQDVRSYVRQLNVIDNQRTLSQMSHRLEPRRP

activation, inactive:
COc1ccc(CNc2ncncc2-c2ccoc2)c(OC)c1 -19.3%, COc1cc(-c2cccc(OC)c2OC)cc2c1OCCN(Cc1cn[nH]c1-c1ccc(Cl)cc1)C2 2.87%, NCc1ccccc1Sc1ccccc1CO 2.75%, CS(=O)(=O)Nc1cccc(-c2nc(NCc3cccnc3)c3ccccc3n2)c1 -5.23%, COc1ccc(C(=O)NCc2nc(-c3cccc(NC(=O)c4ccc(C)s4)c3)oc2C)cc1 9.85%, CC(=O)N[C@@H](CS)C(=O)O -4.62% and 14.5%, COCCNc1ncnc2ccc(-c3cccc(NS(C)(=O)=O)c3)cc12 -21.3%, N[C@@H](Cc1cc(I)c(Oc2ccc(O)cc2)c(I)c1)C(=O)O 1.88%, Nc1c(NC/C=C\COc2cc(CN3CCCCC3)ccn2)c(=O)c1=O 11.4%, CC(=O)O[C@H]1C[C@@]2(C)[C@@H](C[C@@H](O)[C@H]3[C@@]4(C)CC[C@@H](O)[C@@H](C)[C@@H]4CC[C@@]32C)/C1=C(\CCC=C(C)C)C(=O)O -7.02%, FC(F)(F)c1ccccc1-c1nc(NC2CC2)c2ccccc2n1 -12.5%, CN(C)c1ncc2nc(CCc3ccccc3)c(=O)n(CCc3ccccc3)c2n1 -8.28%, N#Cc1ccc(CN2CCCC3(CCN(C(=O)c4ccco4)CC3)C2)cc1 -3.5%, COc1ccc(-c2nc3cc(C)ccc3cc2CN(C(=O)c2cccs2)C2CC2)cc1OC 6.87%, O=c1cc(-c2ccccc2)[nH]c2nc(Cl)ccc12 -28.3%, O=c1[nH]c(=O)c2nc3ccccc3nc2[nH]1 8.09%, N#Cc1cccc(NC(=O)N2CC[C@@]3(CCCN(C(=O)c4cc(C(F)(F)F)cc(C(F)(F)F)c4)C3)C2)c1 -21.7%, N#C/C(=C\c1ccc(O)c(O)c1)C(=O)NCCc1ccccc1 -39.6%, Cn1c(C2CCC2)nc2cc(C(=O)N3CCOc4ccccc4C3)cc(NC(=O)C3CCCO3)c21 (stereo not drawn) -1.67%, O=C(Nc1ccccc1)[C@@H]1CC=C[C@@H]2CCN(C3CC3)C(=O)[C@@H]21 -25%, O=C(c1ccc2c(c1)OCO2)N(Cc1cc2ccc(F)cc2nc1N1CCC(O)CC1)CC1CCCO1 (stereo not drawn) 1.41%, CCCCC(=O)OCC(=O)[C@]1(O)Cc2c(O)c3c(c(O)c2[C@@H](O[C@H]2C[C@H](NC(=O)C(F)(F)F)[C@H](O)[C@H](C)O2)C1)C(=O)c1c(OC)cccc1C3=O -1%, N#Cc1ccc(CN2CC[C@@]3(CCCN(S(=O)(=O)c4ccccc4)C3)C2)cc1 3.9%, CCC(=O)OC(OP(=O)(CCCCc1ccccc1)CC(=O)N1C[C@H](C2CCCCC2)C[C@H]1C(=O)O)C(C)C (stereo partly drawn) -17.1%, Clc1ccc2c(c1)N=C(N1CCNCC1)c1ccccc1N2 -13.9% and -1.77% and -33.6%, CC(=O)OC/C=C(C)/C=C/C=C(C)/C=C/C1=C(C)CCCC1(C)C -2.77% and -41.8% and 0.24%, O=C(c1cccc(F)c1F)N1CCOc2ccc(CN3CCN(Cc4ccccn4)CC3)cc2C1 2.67%, COc1ccccc1N(C)C -18.8%, O=c1c(-c2cccc(F)c2)nc2cncnc2n1-c1ccccc1 0.553%, COc1ccccc1N1CCN(c2nc(CNC(=O)c3ccccc3F)nc3ccccc23)CC1 -0.723%, CCCCCCCCCCCCCCCCCC(=O)O -5.89%, O=C1NC(=O)/C(=C/c2ccc(-c3ccc(F)cc3O)o2)S1 -58.7%, Nc1ncnc2c1ncn2C1OC(CO)C(O)C1O (stereo not drawn) -3.95% and -8.08%, O=C(Nc1ccccc1)N1CCC2(CC1)CCN(C(=O)c1cccc(F)c1)CC2 -8.98%, CC(C)c1ccc2c(c1)CCC1C(C)(C(N)=O)CCCC21C (stereo not drawn) -20.1%, CCCn1c(=O)c2[nH]c(-c3ccccc3)nc2n(CCC)c1=O 10.1% and 5.28%, CCC(c1ccc(O)cc1)C(CC)c1ccc(O)cc1 (stereo not drawn) 0.614%, NC1(c2ccc(-c3nc4ccn5c(=O)[nH]nc5c4cc3-c3ccccc3)cc2)CCC1 -8.43%, COc1cc(OC)c2c(=O)c(OC)c(-c3ccc(OC)c(OC)c3)oc2c1 -10.1%, CN1C2CC(OC(=O)C(CO)c3ccccc3)C[C@@H]1[C@H]1OC21 (stereo partly drawn) -11.6%, COc1ccccc1CNc1ncncc1-c1ccccc1OC -20.4%, O=C(NCc1nnc2n1CCN(Cc1ccnc3ccccc13)CC2)c1cccc(F)c1 -24.5%, Cc1ccccc1/C=C/C1=NCCN1 -35.9%, CCCCCCC(=O)O[C@H]1CC[C@H]2[C@@H]3CCc4cc(O)ccc4[C@H]3CC[C@]12C -17.6%, O=C(Nc1cccc(F)c1)N1CCC2(CC1)CCN(C(=O)c1ccncc1)CC2 -13.9%, CNc1ncnc2ccc(-c3ccc4c(c3)OCO4)cc12 -11.8%, COc1ccc(CN2CCCC(n3cc(C(=O)N4CCCCC4)nn3)C2)c(OC)c1C (stereo not drawn) -3.21%, CC(NC(=O)C1CCOCC1)c1nnc2n1CCN(Cc1ccc3ccccc3c1)CC2 (stereo not drawn) -12.1%, CCC1(C2CCN(Cc3c(C)[nH]c4ccccc34)CC2)NC(=O)N(Cc2ccc3c(c2)OCO3)C1=O (stereo not drawn) -6.63%, COc1ccccc1-c1ccnc(-n2ncc(C(=O)NCCc3cccnc3)c2C)n1 3.96%, CC(C)Oc1cccc(-n2c(CCc3c[nH]c4ccc(Br)cc34)nc3ccccc3c2=O)c1 7.36%, Cc1cccc(-c2[nH]c(C(C)(C)C)nc2-c2ccc3nccnc3c2)n1 -37.6%, COc1ccc(O)c(CN2CCC3(CCC(CNC(=O)c4ccccc4)O3)CC2)c1 (stereo not drawn) -3.96%
